According to PubChem BioAssay (NCATS):
Where “and” joins values, the source holds several entries; their conditions need not be identical. Equal entries are not always repeated. Inconclusive means that the source gave no clear call. Such entries were picked first, then a sample of the others. For some of these results: Potencies of inconclusive entries are doubtful fits and often do not repeat. More than one record can exist for a structure, and the calls need not agree. Calls of active or inactive are those of the source. Calls come from the whole dose curve; as a rule, active = well fitted curve in the direction sought with a large enough effect; inconclusive = small, poorly fitted or top-dose-only effect, or another doubt; inactive = no such curve, though single readings can be large; an effect the other way counts as inactive or inconclusive.

Experiments:
CRL-7250 = normal cell line; assay: Cytotoxic Profiling of Annotated Libraries Using Quantitative High-Throughput Screening (AID 1296008); conditions: Five cell lines viability, CellTiter-Glo ATP luminescence, 48-72 h; max response: stronger effect = lower value; note: nearly all actives have a fitted effect of over 60% in size; for max response: % is set by controls: 0 for no effect and ±100 for the full control effect
How it was run: (§1)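 Cytotoxicity was measured as CellTiter-Glo ATP luminescence, read after 10 min at room temperature. Compound treatment of the cells lasted 48 or 72 hr at 37 degrees Celsius in a qHTS format.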

HaCat = assay: as above; conditions: Five cell lines viability, CellTiter-Glo ATP luminescence, 48-72 h; max response: stronger effect = lower value
How it was run: as §1

KB-3-1 = assay: as above; conditions: Five cell lines viability, CellTiter-Glo ATP luminescence, 48-72 h; max response: stronger effect = lower value
How it was run: as §1

NIH3T3 = assay: as above; conditions: Five cell lines viability, CellTiter-Glo ATP luminescence, 48-72 h; max response: stronger effect = lower value
How it was run: as §1

MCC-13 = assay: qHTS assay to identify novel small-molecules to repurpose for Merkel cell carcinoma treatment (AID 1296009); conditions: MCC and control cell lines, CellTiter-Glo viability, 72 h; series mostly up to 46 µM; note: nearly all actives have a fitted effect of over 60% in size
How it was run: (§2)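 Cell viability, measured as CellTiter-Glo luminescence, was normalized between DMSO and no-cell wells. The cells had been exposed to 8- or 11-point compound dilutions for 72 hr at 37 degree celsius.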

MCC-26 = assay: as above; conditions: MCC and control cell lines, CellTiter-Glo viability, 72 h; series mostly up to 46 µM
How it was run: as §2

MKL-2 = assay: as above; conditions: MCC and control cell lines, CellTiter-Glo viability, 72 h; series mostly up to 46 µM
How it was run: as §2

UISO = assay: as above; conditions: MCC and control cell lines, CellTiter-Glo viability, 72 h; series mostly up to 46 µM
How it was run: as §2

MKL-1 = assay: as above; conditions: MCC and control cell lines, CellTiter-Glo viability, 72 h; series mostly up to 46 µM
How it was run: as §2

WaGa = assay: as above; conditions: MCC and control cell lines, CellTiter-Glo viability, 72 h; series mostly up to 46 µM
How it was run: as §2

astro = assay: Drug repurposing screens with cells derived from glioblastoma tumor samples (AID 1345199); conditions: viability, ATP luminescence, 48 h; activity, negative = cell killing: at 45.9 µM (top of the series); note: nearly all actives have a fitted effect of over 40% in size
How it was run: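 Primary testing used CD133+ neurospheres from four GBM patients, seven concentrations, 48 h exposure and ATP-based viability; confirmation added three slower-growing patient lines.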

C33A = assay: Primary qHTS to identify gynecologic anti-cancer compounds using libraries of approved drugs and bioactive compounds (AID 1345084); conditions: Gynecologic cancer cell panel viability, ATPlite luminescence, 48 h; series mostly up to 57.5 µM; note: nearly all actives have a fitted effect of over 55% in size
How it was run: (§3)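 Measured: luminescence after ATPlite addition (15 min, RT). Exposure: 48 h, 37 C, 5% CO2.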

CAOV3 = assay: as above; conditions: Gynecologic cancer cell panel viability, ATPlite luminescence, 48 h; series mostly up to 57.5 µM
How it was run: as §3

CASKI = assay: as above; conditions: Gynecologic cancer cell panel viability, ATPlite luminescence, 48 h; activity change, negative = cytotoxicity: at 57.5 µM (top of the series)
How it was run: as §3

Es-2 = assay: as above; conditions: Gynecologic cancer cell panel viability, ATPlite luminescence, 48 h; series mostly up to 57.5 µM
How it was run: as §3

HeLa = assay: as above; conditions: Gynecologic cancer cell panel viability, ATPlite luminescence, 48 h; series mostly up to 57.5 µM
How it was run: as §3

W2 = assay: qHTS profiling for inhibitors of Plasmodium falciparum proliferation (AID 504749); note: nearly all actives have a fitted effect of over 60% in size; conditions: P. falciparum in erythrocytes, SYBR Green DNA, 72 h; series mostly up to 28.7 µM
How it was run: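 SYBR Green fluorescence of parasite DNA, read after lysis and overnight dark incubation, measured growth over 72 h in erythrocyte culture at 0.3% parasitemia and 2.5% hematocrit. Data normalised to DMSO and 0.29 uM artemisinin, with plate-drift correction.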

HEK293 = assay: Cytotoxic Profiling of Annotated Libraries Using Quantitative High-Throughput Screening (AID 1296008); conditions: Five cell lines viability, CellTiter-Glo ATP luminescence, 48-72 h; max response: stronger effect = lower value; note: nearly all actives have a fitted effect of over 60% in size; for max response: % is set by controls: 0 for no effect and ±100 for the full control effect
How it was run: as §1

[1] = qHTS assay to identify inhibitors of the type 1 interferon - major histocompatibility complex class I in skeletal muscle: Counter screen cell viability and HiBit confirmation (AID 1347412); conditions: iHSKM muscle cells + IFN-b, HiBiT or CellTiter-Glo, 24 h; note: nearly all actives have a fitted effect of over 60% in size; for activity change, negative = inhibition: % is set by controls: 0 for no effect and ±100 for the full control effect
How it was run: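 CRISPR HLA-B*08:01-HiBit immortalized human myoblasts (C25cl48) stimulated with 4 ng/ml IFN-beta and compounds (12-point 1:3, top 46 uM final) for 24 h at 37 C. Duplicate plates read by HiBit lytic luminescence or CellTiter Glo ATP.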
Potency is the fitted concentration of half-maximal effect; tags give direction and shape of the fitted curve.

**Q.** With `COc1cc(C=CC(=O)CC(=O)C=Cc2ccc(O)c(OC)c2)ccc1O` as the molecule, how does the Potency (CRL-7250) read?
**A.** active: 34 µM

**Q.** And the Potency (HaCat)?
**A.** inconclusive: 67.9 µM [inhibitor, single point]

**Q.** What about the Potency (KB-3-1) of the same molecule?
**A.** active: 38.2 µM

**Q.** What about the Potency (NIH3T3) of the same molecule?
**A.** inconclusive: 34 µM [inhibitor, partial curve]

**Q.** What about the Potency (MCC-13) of the same molecule?
**A.** inconclusive: 54 µM [inhibitor, single point]

**Q.** And the Potency (MCC-26)?
**A.** inconclusive: 19.1 µM [inhibitor, single point]

**Q.** And the Potency (MKL-2)?
**A.** active: 8.55 µM

**Q.** What about the Potency (UISO) of the same molecule?
**A.** active: 21.5 µM

**Q.** With `C[N+](C)([O-])CCNc1ccc(NCC[N+](C)(C)[O-])c2c1C(=O)c1c(O)ccc(O)c1C2=O` as the molecule, how does the Potency (CRL-7250) read?
**A.** inconclusive: 1.48 µM [inhibitor, full curve, poor fit]

**Q.** And the max response (HaCat)?
**A.** inactive: -8.98%

**Q.** What about the Potency (KB-3-1) of the same molecule?
**A.** inconclusive: 37.2 µM [inhibitor, single point]

**Q.** What about the Potency (MCC-13) of the same molecule?
**A.** inconclusive: 5.26 µM [inhibitor, partial curve]

**Q.** What about the Potency (MKL-1) of the same molecule?
**A.** inconclusive: 1.32 µM [inhibitor, full curve]

**Q.** And the Potency (MKL-2)?
**A.** inconclusive: 0.0743 µM [inhibitor, full curve]

**Q.** What about the Potency (UISO) of the same molecule?
**A.** inconclusive: 3.72 µM [inhibitor, partial curve]

**Q.** And the Potency (WaGa)?
**A.** inconclusive: 0.743 µM [inhibitor, full curve]

**Q.** Which results are given for `CC(C)(C)CC(C)(C)c1ccc(OCCOCC[N+](C)(C)Cc2ccccc2)cc1`?
**A.** Potency (CRL-7250): inconclusive: 33.5 µM [inhibitor, single point] and inconclusive: 29.1 µM [inhibitor, single point]; Potency (HaCat): inconclusive: 20.6 µM [inhibitor, single point]; Potency (KB-3-1): active: 20.6 µM; Potency (NIH3T3): inconclusive: 26.6 µM [inhibitor, single point]; max response (NIH3T3): inactive: -27.5%; Potency (MCC-26): inconclusive: 23.7 µM [inhibitor, single point]; Potency (MKL-2): active: 0.944 µM; Potency (UISO): active: 8.41 µM; Potency (WaGa): active: 1.5 µM; Potency (astro): active: 20 µM; Potency (C33A): inconclusive: 11.2 µM [cytotoxic, partial curve] and inconclusive: 22.4 µM [cytotoxic, single point]; Potency (CAOV3): active: 25.1 µM; Potency (CASKI): active: 10 µM and inconclusive: 39.8 µM [cytotoxic, single point]; Potency (Es-2): inconclusive: 28.2 µM [cytotoxic, single point]; Potency (HeLa): inconclusive: 6.31 µM [cytotoxic, single point]

**Q.** Which results are given for `CCCCCCCCCCCCCCCC[N+](C)(C)Cc1ccccc1`?
**A.** Potency (W2): active: 4.26 µM; Potency (CRL-7250): inconclusive: 29.9 µM [inhibitor, single point]; Potency (HaCat): inconclusive: 33.5 µM [inhibitor, single point]; Potency (KB-3-1): inconclusive: 29.1 µM [inhibitor, single point]; Potency (NIH3T3): active: 11.9 µM; Potency (MCC-13): inconclusive: 23.7 µM [inhibitor, single point]; Potency (MCC-26): active: 29.9 µM; Potency (astro): active: 12.6 µM; Potency (C33A): active: 28.2 µM; Potency (CAOV3): active: 20 µM; Potency (CASKI): inconclusive: 31.6 µM [cytotoxic, single point]; Potency (Es-2): inconclusive: 31.6 µM [cytotoxic, single point]

**Q.** With `NC(=O)Nc1cc(-c2ccc(CN3CCOCC3)cc2)sc1C(N)=O` as the molecule, how does the Potency (CRL-7250) read?
**A.** active: 13.2 µM

**Q.** What about the Potency (HEK293) of the same molecule?
**A.** active: 5.26 µM

**Q.** And the Potency (MCC-26)?
**A.** inconclusive: 10.5 µM [inhibitor, partial curve]

**Q.** What about the Potency (MKL-1) of the same molecule?
**A.** inconclusive: 0.296 µM [inhibitor, full curve]

**Q.** What about the Potency (MKL-2) of the same molecule?
**A.** inconclusive: 1.32 µM [inhibitor, full curve]

**Q.** And the Potency (UISO)?
**A.** inconclusive: 7.43 µM [inhibitor, full curve]

**Q.** What about the Potency (WaGa) of the same molecule?
**A.** inconclusive: 0.662 µM [inhibitor, full curve]

**Q.** With `COc1cc(C=C2CCC/C(=C\c3ccc(O)c(OC)c3)C2=O)ccc1O` as the molecule, how does the Potency (CRL-7250) read?
**A.** active: 15 µM

**Q.** What about the Potency (HaCat) of the same molecule?
**A.** inconclusive: 33.5 µM [inhibitor, single point]

**Q.** What about the Potency (KB-3-1) of the same molecule?
**A.** inconclusive: 29.1 µM [inhibitor, single point]

**Q.** What about the Potency (NIH3T3) of the same molecule?
**A.** active: 16.8 µM

**Q.** What about the Potency (MCC-26) of the same molecule?
**A.** inconclusive: 10.6 µM [inhibitor, partial curve]

**Q.** And the Potency (MKL-2)?
**A.** active: 2.99 µM

**Q.** What about the Potency (UISO) of the same molecule?
**A.** active: 21.1 µM

**Q.** What about the Potency (astro) of the same molecule?
**A.** active: 20 µM

**Q.** What about the Potency ([1]; HiBiT) of the same molecule?
**A.** inconclusive: 22.2 µM [inhibitor, partial curve]

**Q.** And the activity change, negative = inhibition ([1]; Viability, at 45.9 µM (top of the series))?
**A.** inactive: -6.23%

**Q.** What about the Potency (C33A) of the same molecule?
**A.** inconclusive: 31.6 µM [cytotoxic, single point]

**Q.** And the Potency (CAOV3)?
**A.** inconclusive: 35.5 µM [cytotoxic, single point]

**Q.** And the Potency (CASKI)?
**A.** inconclusive: 39.8 µM [cytotoxic, single point]

**Q.** What about the Potency (HeLa) of the same molecule?
**A.** inconclusive: 39.8 µM [cytotoxic, single point]
